In US20150037336A1, “COMBINATION OF HB-EGF BINDING PROTEIN AND EGFR INHIBITOR” (U3 PHARMA GMBH, priority 2012, published 2015):

Tested on: EFO27-CI58 cells
Experiment: ovarian cancer xenograft study (EFO27-CI58 in SCID mice)
Type: in vivo, CB-17 SCID mice
Details: U2-39 25 mg/kg i.v. on days 17, 20 and 23, monotherapy; compared to vehicle control and cetuximab monotherapy; mean tumor volume ~550 mm3 at start; FIG. 1
Procedure: In order to evaluate the anti-tumor efficacy of the antibody of invention administered as a monotherapy or in combination with Erlotinib, an ovarian cancer xenograft study was conducted.
The human ovarian adenocarcinoma cell line EFO27 was genetically engineered to overexpress HB-EGF. The clone EFO27-CI58 was chosen for xenograft studies in SCID mice. 3×10^6 EFO27-CI58 cells in 100 μl PBS/Matrigel (1:1) were injected subcutaneously into the left flank of 7-8 week old female CB-17 SCID mice (approximate weight, 30 g). On day 16, after mean tumor volumes had reached approximately 550 mm3, 60 mice were randomized into 5 groups with 12 animals each. On day 17, treatment with U2-39, cetuximab (Erbitux®), Erlotinib (Tarceva®), vehicle control, PBS, or a combination of U2-39 and Erlotinib was initiated. PBS (10 ml/kg), U2-39 (25 mg/kg) and cetuximab (25 mg/kg) were administered intravenously (i.v.) on days 17, 20 and 23 (1, 4 and 7 days after randomization), whereas erlotinib (60 mg/kg) was administered once daily orally (p.o.) from day 17 today 24 either alone or in combination with U2-39. Prior to each treatment on days 17, 20 and 23, tumor volumes were determined by calliper measurement. Following calliper measurement, tumor size was calculated according to the formula W2×L/2 with L=length and W=the perpendicular width of the tumor.

B1: U2-39: anti-HB-EGF antibody; light chain SEQ ID NO: 1, heavy chain SEQ ID NO: 2; VL SEQ ID NO: 30, VH SEQ ID NO: 81 (antibody, listed as Homo Sapiens)
heavy: QVQLQESGPGLVKPSQTLSLNCTVSGGSISSGGYYWSWIRQHPGKGLEWIGYIHYSGSTYYNPSLKSRITISADTSKNQFSLKLNSVTAADTAVYYCARDRGGGDYGRMDVWGQGTTVTVSSASTKGPSVFPLAPCSRSTSESTAALGCLVKDYFPEPVTVSWNSGALTSGVHTFPAVLQSSGLYSLSSVVTVPSSNFGTQTYTCNVDHKPSNTKVDKTVERKCCVECPPCPAPPVAGPSVFLFPPKPKDTLMISRTPEVTCVVVDVSHEDPEVQFNWYVDGVEVHNAKTKPREEQFNSTFRVVSVLTVVHQDWLNGKEYKCKVSNKGLPAPIEKTISKTKGQPREPQVYTLPPSREEMTKNQVSLTCLVKGFYPSDIAVEWESNGQPENNYKTTPPMLDSDGSFFLYSKLTVDKSRWQQGNVFSCSVMHEALHNHYTQKSLSLSPGK
light: DIQMTQSPSSLSASVGDRVTITCRASQSISTYLNWYQQKPGKAPKFLIYAASSLQSGVPSRFSGSGSGTDFTLTISSLQPEDFAAYYCQQSHSAPFTFGPGTKVDIKRTVAAPSVFIFPPSDEQLKSGTASVVCLLNNFYPREAKVQWKVDNALQSGNSQESVTEQDSKDSTYSLSSTLTLSKADYEKHKVYACEVTHQGLSSPVTKSFNRGEC
  tumor growth: significantly reduces EFO27-CL58 tumor growth
